# “And” between values parts separate entries of the source, which are not always exact repeats. Equal entries are not always repeated. The shares of active, inactive and inconclusive entries below differ from those in the screen. For some of these results: Where the call is inconclusive, the potency comes from a doubtful curve fit. Some structures have more than one record in an assay (separate samples or runs), and their calls can disagree. The source made the active and inactive calls. Unless noted, the call rests on the fitted dose curve; in most records, active means well fitted curve in the direction sought with a large enough effect in the repeat runs; inconclusive means weak or mixed curves; inactive means no such curve, though single readings can be large; an effect the other way counts as inactive or inconclusive.
# Tests used:
# [1] = qHTS assay for small molecule agonists of the antioxidant response element (ARE) signaling pathway (AID 743202; active means well fitted activation curve with a large enough effect in the signal ratio in the repeat runs, not every such curve was filed as active; inconclusive means weak or mixed curves, or effect the other way; inactive means no such curve, though single readings can be large or run the other way; the % refers to the signal ratio; further: potency means the concentration at half of the fitted maximal effect; on activation: on the % scale 0 is the no-effect control and ±100 the full control effect); conditions: HepG2 ARE-bla reporter, beta-lactamase FRET, 16 h
# How it was run: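 After 16 hours of compound treatment at 37 C, HepG2 cells with a stably integrated ARE-driven beta-lactamase reporter were loaded 2 hours at room temperature with LiveBLAzer B/G FRET substrate and fluorescence intensity measured.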
# [2] = qHTS assay to identify small molecule antagonists of the peroxisome proliferator-activated receptor gamma (PPARg) signaling pathway - cell viability counter screen (AID 743194); conditions: PPARg-bla HEK293H viability, CellTiter-Glo luminescence, 17 h; Potency: co-treated with 50 nM rosiglitazone unless noted; activity change, negative = cytotoxicity: at 62.6 µM (top of the series), co-treated with 50 nM rosiglitazone unless noted; further: nearly all actives have a fitted effect of over 55% in size; further: potency means the concentration at half of the fitted maximal effect; on activity change, negative = cytotoxicity: on the % scale 0 is the no-effect control and ±100 the full control effect
# How it was run: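 Viability was measured as CellTiter-Glo luminescence in GeneBLAzer PPARg UAS-bla HEK293H cells. These cells had been exposed 17 h at 37 C to compounds together with rosiglitazone at 50 nM final, with the beta-lactamase readout taken in the same wells.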
# [3] = target: Peroxisome proliferator-activated receptor delta (Homo sapiens) (UniProt Q03181); test: qHTS assay to identify small molecule antagonists of the peroxisome proliferator-activated receptor delta (PPARd) signaling pathway (AID 743215; active means well fitted inhibition curve with a large enough effect in the signal ratio in the repeat runs, not every such curve was filed as active; inconclusive means weak or mixed curves, or effect the other way; inactive means no such curve, though single readings can be large or run the other way; the % refers to the signal ratio;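 further: cells stimulated with agonist L165041 at 300 nM final during compound exposure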; further: potency means the concentration at half of the fitted maximal effect; on ratio activity, negative = inhibition: on the % scale 0 is the no-effect control and ±100 the full control effect); conditions: HEK293H PPARd-UAS-bla, beta-lactamase FRET ratio, antagonist, 17 h; ratio activity, negative = inhibition: at 62 µM (top of the series) unless noted
# UniProt Q03181, sequence (Q03181 whole entry, looked up): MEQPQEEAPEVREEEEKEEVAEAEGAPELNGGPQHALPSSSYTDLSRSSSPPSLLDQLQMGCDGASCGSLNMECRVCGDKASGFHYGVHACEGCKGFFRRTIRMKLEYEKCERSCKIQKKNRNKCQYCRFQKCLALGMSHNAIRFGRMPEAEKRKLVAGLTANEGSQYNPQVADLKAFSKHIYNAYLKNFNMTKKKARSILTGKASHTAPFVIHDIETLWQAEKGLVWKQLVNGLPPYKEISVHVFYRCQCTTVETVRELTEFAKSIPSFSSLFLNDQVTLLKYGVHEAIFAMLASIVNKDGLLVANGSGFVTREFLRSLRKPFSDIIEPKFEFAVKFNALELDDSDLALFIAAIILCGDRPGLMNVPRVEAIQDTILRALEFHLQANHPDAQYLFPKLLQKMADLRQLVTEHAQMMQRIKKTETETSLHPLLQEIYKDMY
# How it was run: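 Agonist L165041 (300 nM final) added with compound to PPARd-bla HEK293H UAS-bla reporter cells; 17 h incubation at 37 C. Read-out: LiveBLAzer FRET substrate, 2 h at room temperature, fluorescence intensity.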
# [4] = qHTS assay for small molecule activators of the heat shock response signaling pathway (AID 743210; active means well fitted activation curve with a large enough effect in the signal ratio in the repeat runs, with a control signal flat, not every such curve was filed as active; inconclusive means weak or mixed curves; the % refers to the signal ratio; further: potency means the concentration at half of the fitted maximal effect); conditions: HeLa HSE-bla reporter, beta-lactamase ratio, 5 h; activation: at 62.6 µM (top of the series) unless noted
# How it was run: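 Compound exposure lasted 5 h at 37 C in HeLa cells carrying a heat-shock-element-driven beta-lactamase reporter. Read-out: fluorescence intensity after 2.5 h room-temperature loading with LiveBLAzer B/G FRET substrate.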
# [5] = target: Peroxisome proliferator-activated receptor delta (Homo sapiens) (UniProt Q03181); test: qHTS assay to identify small molecule agonists of the peroxisome proliferator-activated receptor delta (PPARd) signaling pathway (AID 743212; calls by dose curve;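 further: HEK293H cells with PPARd UAS beta-lactamase reporter GeneBLAzer system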; further: potency means the concentration at half of the fitted maximal effect); conditions: HEK293H PPARd-UAS-bla, beta-lactamase FRET ratio, 17 h
# How it was run: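 Beta-lactamase reporter readout: a ratiometric FRET signal from the LiveBLAzer substrate after 2 h at room temperature. Compound exposure at 37 °C in PPARδ-bla HEK293H cells driven by an upstream activator sequence.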
# [6] = qHTS assay to identify small molecule antagonists of the peroxisome proliferator-activated receptor delta (PPARd) signaling pathway - cell viability counter screen (AID 743213); conditions: PPARd-bla HEK293H viability, CellTiter-Glo luminescence, 17 h; viability change, negative = cytotoxic: at 62 µM (top of the series) unless noted; further: nearly all actives have a fitted effect of over 50% in size; further: potency means the concentration at half of the fitted maximal effect
# How it was run: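 PPARd-bla HEK293H cells (3000/well) got compound plus 300 nM L165041 agonist for 17 h at 37 C. Viability in the same wells came from CellTiter-Glo luminescence after 30 min at room temperature.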
# [7] = target: Bile acid receptor (Homo sapiens) (UniProt Q96RI1); test: qHTS assay to identify small molecule antagonists of the farnesoid-X-receptor (FXR) signaling pathway (AID 743217; active means well fitted inhibition curve with a large enough effect in the signal ratio in the repeat runs, not every such curve was filed as active; inconclusive means weak or mixed curves, or effect the other way; inactive means no such curve, though single readings can be large or run the other way; the % refers to the signal ratio; further: on the % scale 0 is the no-effect control and ±100 the full control effect); conditions: HEK293T FXR-UAS-bla, beta-lactamase ratio, CDCA-stimulated, 16 h
# UniProt Q96RI1, sequence (Q96RI1 whole entry, looked up): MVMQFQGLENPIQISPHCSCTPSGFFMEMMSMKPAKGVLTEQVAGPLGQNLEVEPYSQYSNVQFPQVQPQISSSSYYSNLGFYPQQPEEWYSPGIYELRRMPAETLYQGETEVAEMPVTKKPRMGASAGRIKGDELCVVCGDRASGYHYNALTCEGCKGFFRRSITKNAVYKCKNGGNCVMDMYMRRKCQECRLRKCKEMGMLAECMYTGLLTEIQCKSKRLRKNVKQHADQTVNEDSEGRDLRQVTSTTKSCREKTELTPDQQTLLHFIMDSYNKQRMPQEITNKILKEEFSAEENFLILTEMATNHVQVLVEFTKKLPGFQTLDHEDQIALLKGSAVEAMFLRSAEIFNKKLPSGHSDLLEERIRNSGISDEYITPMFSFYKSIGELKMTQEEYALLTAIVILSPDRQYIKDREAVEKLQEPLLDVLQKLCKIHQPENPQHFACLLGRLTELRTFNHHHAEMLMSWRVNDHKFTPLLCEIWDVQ
# How it was run: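 Antagonist mode: chenodeoxycholic acid at 50 uM final stimulates a UAS-driven beta-lactamase reporter in HEK 293T FXR-bla cells during 16 h, 37C compound exposure. Read-out is FRET substrate fluorescence after 2 h at room temperature.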
# [8] = qHTS assay to identify small molecule agonists of the peroxisome proliferator-activated receptor delta (PPARd) signaling pathway - cell viability counter screen (AID 743211); conditions: PPARd-bla HEK293H viability, CellTiter-Glo luminescence, 17 h; activity change, negative = cytotoxicity: at 62.6 µM (top of the series); further: potency means the concentration at half of the fitted maximal effect; nearly all actives have a fitted effect of over 55% in size
# How it was run: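 Tox21 library compounds, delivered in DMSO, were incubated 17 h with PPARd-bla HEK293H cells; cytotoxicity was taken from CellTiter-Glo luminescence read 30 min after reagent addition.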
# [9] = activation: at 73.3 µM (top of the series) unless noted
# [10] = activation: at 62.6 µM (top of the series) unless noted
# Tags describe the fitted curve by direction and shape or compound fluorescence and quenching.
smiles,measurement,setting,value
CC(C)N(C(=O)SC/C(Cl)=C/Cl)C(C)C,Potency,[1]; [9],inactive
CC(C)OC(=O)C(O)(c1ccc(Cl)cc1)c1ccc(Cl)cc1,Potency,[2],"inconclusive: 24.5 µM [cytotoxic, partial curve, poor fit]"
same,Potency,[3],inactive
Clc1cccc(Cl)c1,Potency,[1]; [9],inactive
Nc1ccc([As](=O)(O)O)cc1,Potency,[2],inactive
same,Potency,[4],inactive
CCc1cccc(C)c1N(C(=O)CCl)[C@@H](C)COC,Potency,[1]; [9],active: 9.69 µM
Clc1nc(Cl)nc(Cl)n1,Potency,[2],inactive
same,Potency,[4],inconclusive: 61.7 µM [activator]
same,activation,[5]; [10],inconclusive: -2.56%
same,Potency,[6],"inconclusive: 5.49 µM [cytotoxic, single point]"
O=C(O)c1ccc2[nH]cc(CCCCN3CC=C(c4ccccc4)CC3)c2c1,activation,[1]; [9],inconclusive: 22%
CCC(C)(C#N)N=NC(C)(C#N)CC (stereo unspecified),activation,[1]; [9],inconclusive: -13.4%
Cc1cccc(C)c1NC(=O)CN1CCCC1=O,Potency,[1]; [9],inactive
NC(=S)c1c(Cl)cccc1Cl,Potency,[1]; [9],inactive
Cn1c(CCCC(=O)O)nc2cc(N(CCCl)CCCl)ccc21,Potency,[1]; [9],inactive
CCOC(=O)COc1cc(-c2nn(C)c(OC(F)F)c2Cl)c(F)cc1Cl,Potency,[2],"inconclusive: 0.49 µM [cytotoxic, full curve, poor fit]"
same,Potency,[6],inactive
COC(=O)C(c1ccccc1)C1CCCCN1 (stereo unspecified),Potency,[1]; [9],"inconclusive: 61.1 µM [falling, single point]"
CCCCCCCCCCCOC(=O)c1ccccc1C(=O)OCCCCCCCCCCC,Potency,[2],inactive
same,Potency,[5]; [10],inactive
same,Potency,[6],inactive
COc1ccccc1OC,Potency,[2],"inconclusive: 8.71 µM [cytotoxic, full curve, poor fit]"
same,Potency,[4],inactive
same,Potency,[3],inactive
Cc1cc(OC(=O)N(C)C)nn1C(=O)N(C)C,Potency,[1]; [9],inactive
Cc1cc(C)c(C2=C(OC(=O)CC(C)(C)C)C3(CCCC3)OC2=O)c(C)c1,Potency,[1]; [9],"inconclusive: 25.5 µM [rising, partial curve]"
FC(F)(F)c1ccc(Cl)cc1,"activity change, negative = cytotoxicity",[2],inconclusive: 22.6%
same,"activity change, negative = inhibition","[7]; activity change, negative = inhibition: at 62.6 µM (top of the series) unless noted",inconclusive: -0.276%
Brc1cccc(-c2ccccc2)c1,Potency,[1]; [9],inactive
COC(=O)c1sccc1S(=O)(=O)NC(=O)Nc1nc(C)nc(OC)n1,Potency,[1]; [9],inactive
O=C(O)c1cc(I)cc(I)c1I,activation,[1]; [9],inconclusive: 32.8% [at 94.8 µM]
O=[N+]([O-])c1cccc(O)c1,Potency,[1]; [9],"inconclusive: 34.5 µM [rising, partial curve]"
O=C1c2ccccc2C(=O)N1SC(Cl)(Cl)Cl,Potency,[2],"inconclusive: 10.8 µM [cytotoxic, partial curve, poor fit] and active: 2.19 µM"
same,Potency,[4],inconclusive: 10.2 µM and inconclusive: 34.7 µM
same,Potency,[8],active: 38.3 µM and active: 6.92 µM
same,Potency,[5]; [10],"inconclusive: 19.5 µM [rising, partial curve, poor fit]"
same,activation,[5]; [10],inconclusive: -15.3%
same,Potency,[3],active: 19.5 µM
Cc1ccc2ccccc2c1,activation,[1]; [9],inconclusive: 22.4%
COc1ccc(C(CN(C)C)C2(O)CCCCC2)cc1 (stereo unspecified),Potency,[2],inactive
same,activation,[5]; [10],inconclusive: -2.75%
same,activation,[5]; at 62.6 µM (top of the series),inactive: -5.09%
same,Potency,[3],inactive
Nc1nc(N)nc(NC2CC2)n1,Potency,[2],"inconclusive: 0.0266 µM [cytotoxic, full curve, poor fit]"
same,Potency,[4],active: 43.6 µM
same,Potency,[8],"inconclusive: 54.9 µM [cytotoxic, single point]"
same,Potency,[5]; [10],"inconclusive: 13.3 µM [rising, single point]"
same,activation,[5]; [10],inconclusive: -13%
same,Potency,[3],"inconclusive: 43.6 µM [fluorescent, partial curve]"
CC1(C)CON(Cc2ccccc2Cl)C1=O,Potency,[1]; [9],"inconclusive: 48.6 µM [rising, partial curve]"
C(=NC1CCCCC1)=NC1CCCCC1,Potency,[2],active: 4.93 µM and active: 3.47 µM
same,"activity change, negative = inhibition",[7]; at 62.6 µM (top of the series),inconclusive: -60.5%
same,"activity change, negative = inhibition",[7]; at 81.1 µM (top of the series),inconclusive: -2.12%
CNP(=O)(OC)Oc1ccc(C(C)(C)C)cc1Cl (stereo unspecified),Potency,[1]; [9],active: 54.5 µM
Oc1cccc2cccnc12,Potency,[2],"inconclusive: 6.16 µM [cytotoxic, full curve]"
same,Potency,[4],inconclusive: 406 nM and inconclusive: 147 nM and inconclusive: 529 nM
same,Potency,[8],"inconclusive: 696 nM [cytotoxic, full curve] and active: 414 nM and active: 155 nM"
NCC(O)c1ccc(O)cc1 (stereo unspecified),activation,[1]; [9],inconclusive: -5.52%
same,activation,[1]; at 73.3 µM (top of the series),inactive: -7.03%
O=C(NC(O)C(Cl)(Cl)Cl)NC(O)C(Cl)(Cl)Cl (stereo unspecified),Potency,[1]; [9],inactive

# Source: PubChem BioAssay (Tox21)
